ChEMBL document CHEMBL1201862, “PubChem BioAssay data set” (2004)
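Each compound was tested at five concentrations against cells in 96-well plates for 48 hours. GI50 marks 50% less growth.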 Activity calls are given as the source filed them. Cut-off read from the data, not from the text of the source: active = GI50 up to about 1.1 µM and inactive = higher.

test system: NCI-H322M; assay: DTP human tumour cell line panel, 48 h

Compound	GI50
CN(C)c1ccc(/C(F)=C(F)/C(F)=C(F)/C(F)=C(\F)c2ccc(Br)cc2)cc1	inactive: 29.2 µM
CCN(CC)CCC(=O)N1CCc2c([nH]c3ccccc23)C1c1cccnc1 (centres undefined)	inactive: > 100 µM
O=C(CSC1=NCCN1)Nc1ccccc1	inactive: 49.8 µM
Cc1ccc(NC(=S)N/N=C(/c2ccccc2)c2ccccn2)cc1	active: < 0.01 µM
COC(=O)C(Cc1ccccc1)NP(=O)(O)OCC1OC(n2cc(F)c(=O)[nH]c2=O)CC1O (centres undefined)	inactive: 15.6 µM
Nc1nnnn1CCO	inactive: > 100 µM
CN(C)CCNS(=O)(=O)c1ccc(N)cc1	inactive: > 100 µM
O=C1O/C(=C\c2ccc(O)cc2)C(c2ccc(O)c(Cl)c2)=C1Cl	inactive: 38.1 µM
CCOC(=O)c1ccc(Nc2cnc3ccc(C(F)(F)F)cc3n2)cc1	inactive: 18.1 µM
COc1cc(CN2CCCCC2)cc2cc(C(=O)O)c(=O)oc12	inactive: > 100 µM
c1ccc(-c2cc(-c3cc(-c4ccccc4)n(-c4ccccc4)n3)nn2-c2ccccc2)cc1	inactive: > 100 µM
CC(=O)N(C)c1ccc2c(ccc[n+]2[O-])c1[N+](=O)[O-]	inactive: > 100 µM
CN(C)CCNC(=O)c1cccc2c(NC(CS)C(=O)O)c3ccccc3[n+](C)c12 (centres undefined)	inactive: 58.3 µM
O=C1NC(=O)C(C(c2ccc([N+](=O)[O-])cc2)C2C(=O)NC(=O)NC2=O)C(=O)N1	inactive: > 100 µM
N#Cc1ccc(Oc2cccc(Oc3ccccc3)c2)cc1C#N	inactive: > 10 µM
[O-][Cl+3]([O-])([O-])[O-].[O-][Cl+3]([O-])([O-])[O-].c1ccn2c(N3CCOCC3)[n+]3c4ccccc4[n+]4c(N5CCOCC5)n5ccccc5c4c3c2c1	inactive: > 100 µM
CCOC(=O)c1c(-c2cccc3ccccc23)c(C#N)c(=S)n(C2OC(COC(C)=O)C(OC(C)=O)C(OC(C)=O)C2OC(C)=O)c1C (centres undefined)	inactive: > 100 µM
O=C(O)c1cc2c(s1)C(=O)c1sccc1C2=O	inactive: 10.2 µM
Cc1ccc(S(=O)(=O)NNC2Oc3cc4c(cc3C(c3ccccc3O)C2C)OCO4)cc1 (centres undefined)	inactive: 15.7 µM
COC(=O)C12C3C4C1C1C2C3C41C(=O)O (centres undefined)	inactive: > 100 µM
Cc1nc2ccc(F)cc2c2c1CCS2	inactive: > 100 µM
CCOC(=O)C(CC/C=C\c1ccccc1)N1CCC[C@H]1C(=O)OC (some centres undefined)	inactive: > 100 µM
COc1cc(/C=C\c2ccc(OC(C)=O)cc2)cc(OC)c1OC	active: 0.631 µM
CC(CCCOC(c1ccccc1)(c1ccccc1)c1ccccc1)OC(=O)Nc1ccccc1 (centres undefined)	inactive: 14.5 µM

Compound	GI50
COc1cc(C#CC(=O)OC/C=C/c2ccc3c(c2)OCO3)cc(OC)c1OC	inactive: 30.6 µM
O=[N+]([O-])C(C(Cl)=C(Cl)Cl)=C(N1CCOCC1)N1CCOCC1	inactive: > 100 µM
C=C1CC23CCC4C(C)(C(=O)O)CCCC4(C)C2CCC1C3 (centres undefined)	inactive: 37.4 µM
CCCN(CCC)C(=O)Cc1c2n(c3ccccc13)CCCc1ccccc1-2	inactive: 15.1 µM
O=c1[nH]c(Nc2cccc(C(F)(F)F)c2)nc2[nH]cnc12	inactive: 63.2 µM
O=C(/C=C/c1ccco1)N1CCN(Cc2ccccc2)CC1	inactive: > 100 µM
CC1(C)N=c2c(ncn2Cc2ccccc2)=C(C(N)=O)N1	inactive: > 100 µM
Nc1nc(N)c(N=O)c(Nc2ccc(Br)cc2)n1	inactive: 18.6 µM
CC(C)(C)/C(O)=C\c1nc2cc(F)c(F)cc2[nH]c1=O	inactive: > 100 µM
COc1ccc(C(=O)O[C@H]2CC[C@@]3(C)[C@@H]4CC[C@H]5[C@]6(O)C[C@H](O)[C@@]7(O)[C@@H](CN8C[C@@H](C)CC[C@H]8[C@@]7(C)O)[C@]6(O)C[C@@]53OC24O)cc1OC [VERATRIDINE]	inactive: > 100 µM
CN/N=C(/Cc1occc(=O)c1O)C(=O)Nc1ccccc1C	inactive: > 100 µM
CCCCCCCCNC(=O)C1=C(C)NC(C)=C(C(=O)NCCCCCCCC)C1	inactive: > 100 µM
CN1C(=O)C(=O)N2c3ccc(Cl)cc3C3(c4ccccc4)N=CC12O3 (centres undefined)	inactive: 12.8 µM
O=[N+]([O-])c1nc(-c2ccccn2)[nH]c1[N+](=O)[O-]	inactive: 40.4 µM
COc1c(C)c(C/C=C(\C)CC/C=C(\C)CC/C=C(\C)CC/C=C(\C)CCC=C(C)C)c(OC)c(OC)c1OC	inactive: > 100 µM
Cc1ccc(N2C(=O)/C(=C/c3ccc(N(CCC#N)CCC#N)cc3C)N=C2c2cc([N+](=O)[O-])ccc2Cl)cc1	inactive: > 100 µM
CN(C)CCNC(=O)c1cccc2nc3cccc(F)c3nc12	inactive: 1.87 µM
CC1CCN(c2cc(-c3cc4ccccc4o3)oc(=O)c2C#N)CC1	inactive: > 100 µM
CCOC(=O)Cn1sc2ncc([N+](=O)[O-])cc2c1=O	inactive: 17.7 µM
Cc1ccc(NC(=O)c2cc(S(=O)(=O)Nc3n[nH]c(=O)n3-c3ccccc3)c(S)cc2Cl)cc1	inactive: > 100 µM
CO/N=C\c1ccc2c(c1)Sc1ccccc1O2	inactive: > 100 µM
Cc1cc2c(cc1C)[n+]([O-])c(C(=O)C/C(=N/NC(=O)c1ccccc1O)C(=O)Nc1ccccc1C(C)C)c(C)[n+]2[O-]	inactive: > 100 µM
Cc1cccc(CNc2[nH]cnc3nncc2-3)c1	inactive: > 100 µM
CC(C)(C)[C@H]1CCC2(OCCO2)[C@](O)(CCCO)C1	inactive: > 100 µM

Compound	GI50
COc1cc2cc(C(=O)N3C[C@@H](CCl)c4c3cc(N)c3ccccc43)[nH]c2c(OC)c1OC	active: 0.0082 µM
COC(=O)C1[C@@H](C(=O)OC)C(=O)O[C@H]1c1cc(OC)c(OC)c(OC)c1 (some centres undefined)	inactive: > 100 µM
Cc1cc(O)nc(NN2C(Cl)C(=O)C2c2ccc(O)cc2)n1 (centres undefined)	inactive: 11.1 µM
c1ccc(CNCCN2CCNCC2)nc1	inactive: > 100 µM
O=C(O)CCCN1CCCCC1	inactive: > 100 µM
COC(=O)[C@H](Cc1ccccc1)NC(=O)c1ccc(CNC(=O)/C=C/c2cccc(Oc3ccccc3)c2)cc1	inactive: 33.7 µM
Cc1cc(NS(=O)(=O)c2ccc(NC(=O)c3ccc4nc5ccccc5c(Nc5ccc(S(=O)(=O)N=C(N)N)cc5)c4c3)cc2)no1	inactive: 24.3 µM
CCOC(=O)C1CCn2c(nc3c2c(=O)n(C)c(=O)n3C)S1 (centres undefined)	inactive: > 100 µM
NC(=S)SCCC(=O)O	inactive: > 100 µM
Nc1ccc(/C=C/c2ccnc3ccccc23)cc1	inactive: 23.1 µM
CCOC(=O)c1c(SCc2ccccc2)nc2c3ccccc3ccn12	inactive: > 100 µM
CC(=O)CC(=O)N1CCOC1=O	inactive: > 10 µM
O=C(NC(Nc1ccc(F)c(Cl)c1)(C(F)(F)F)C(F)(F)F)OCc1ccccc1	inactive: 72.1 µM
N#Cc1ccccc1Nc1ccccc1S	inactive: 63 µM
CC(=O)OCc1cn(S(=O)(=O)c2ccc(C)cc2)cn1	inactive: > 100 µM
O=C1c2ccccc2C(=O)c2sc(Nc3ccc([N+](=O)[O-])cc3)nc21	inactive: 13.5 µM
CCOC(=O)/C(=C\c1ccc(N(CCC#N)CCC#N)cc1C)NC(=O)/C=C/c1ccccc1	inactive: > 100 µM
COc1cc(/C=C/c2ccc(/C=C/c3cc(OC)c(OC)c(OC)c3)cc2)cc(OC)c1OC	inactive: 33.6 µM
CC1(C)C2CC(O)C1(C)CC2=O (centres undefined)	inactive: 39.5 µM
O=c1c2ccccc2n2nnc3ccc(NCCNCCO)c1c32	inactive: 1.36 µM
CCCCCCCCCCCCCCCCOCC(O)CO (centres undefined)	inactive: 20.9 µM
COC(=O)c1ccc(Oc2nc3ccccc3nc2-c2cccs2)cc1	inactive: > 100 µM
CC1(c2ccc(Cl)cc2)CC(c2ccc(Cl)cc2)=C(C#N)C(=C(C#N)C#N)N1 (centres undefined)	inactive: 14.8 µM
Cc1c/c(=N\c2ccc3c(c2)c(N)cc(C)[n+]3C)nc(N)n1C	inactive: > 100 µM

Compound	GI50
CC(=O)Nc1ccc(S(=O)(=O)[N-]C2C(=O)c3ccccc3C(=O)C2[n+]2ccccc2)cc1 (centres undefined)	inactive: > 100 µM
NCC(=O)N1CCN(c2nc(N3CCCC3)c3nc(Cl)c(NCc4ccccc4)nc3n2)CC1	inactive: 1.74 µM
NC(=O)N/N=C1\CC2C3CC4C2C4C13 (centres undefined)	inactive: > 100 µM
Cc1ccc(S(=O)(=O)N/N=C2\CC3C4C=CC3C2C4)cc1 (centres undefined)	inactive: > 100 µM
COc1ccc(C2=NNC(=O)OC2c2ccccc2)cc1 (centres undefined)	inactive: > 100 µM
C=C1C(=O)O[C@H]2C/C(C)=C/CC[C@@]3(C)O[C@](C)(CC[C@@H]3I)[C@@H](I)C[C@@H]12	inactive: 8.55 µM
O=C(NCCCCCCCCCCCCNC(=O)Nc1cccc2ccccc12)Nc1cccc2ccccc12	inactive: 18.3 µM
CCOC(=O)c1c(N)n(-c2ccccc2)c(=O)n(-c2ccccc2)c1=O	inactive: > 100 µM
FC(F)(F)c1cccc(C2SCc3nc4ccccc4n32)c1 (centres undefined)	inactive: > 100 µM
CCCSS[C@H]1NC(=O)[C@H]1NC(=O)COc1ccccc1	inactive: > 100 µM
Cc1cccc(/N=C/c2ccc(N(CCC#N)S(=O)(=O)c3ccccc3)cc2C)c1	inactive: > 100 µM
O=c1cc(-c2ccccc2)c2ccc(O)c(CN(CCCl)CCCl)c2o1	inactive: 22.8 µM
O=C1CSC(=S)N1c1ccc(F)cc1F	inactive: 62.4 µM
COC(=O)C(Cc1c(-c2[nH]c3ccccc3c2CC(NC(C)=O)C(=O)OC)[nH]c2ccccc12)NC(C)=O (centres undefined)	inactive: > 100 µM
COc1cc2c(cc1OCCCN1CCOCC1)N=C[C@@H]1CCCN1C2=O	inactive: 26.1 µM
CCc1ccccc1NC(=O)CC1NC(=O)CS1 (centres undefined)	inactive: > 100 µM
[N-]=[N+]=C1C(=O)C2CC3CC1CC2C3 (centres undefined)	inactive: > 100 µM
O=C(c1ccc(Cl)c(Cl)c1)N(C(=O)N1CCN(c2ccccc2)CC1)S(=O)(=O)c1ccccc1	inactive: > 100 µM
NC(=O)CCSC(CC(=O)c1ccc(Cl)cc1)c1ccc(Cl)cc1 (centres undefined)	inactive: 36.5 µM
CCOC(=O)/C=C/c1ccccn1	inactive: > 100 µM
NC1=NN(c2ccccc2)C(=O)C1/C(=N\NC(=O)c1cc2ccccc2cc1O)C(=O)Nc1ccc(Cl)c(Cl)c1 (centres undefined)	inactive: 29.3 µM
CC(C)/C(Cl)=N\OC(=O)Nc1ccc(F)cc1	inactive: 11.9 µM
